According to publication PMC4336329 (PLoS ONE, 2015):
Screen size: about 310,000 compounds; about 14,000 (4.5%) showed an effect of 50% or more. Effects have a minus sign here. The list shows a part of the results.

The compounds below were run against human ether-à-go-go-related gene (hERG) potassium channel (human, UniProt Q12809) (assay: primary screen, population patch clamp on CHO cells stably expressing hERG).
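Note: peak tail current of the secondary pulse compared with the same well before compound.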

Sequence of human ether-à-go-go-related gene (hERG) potassium channel (Q12809 whole entry, looked up): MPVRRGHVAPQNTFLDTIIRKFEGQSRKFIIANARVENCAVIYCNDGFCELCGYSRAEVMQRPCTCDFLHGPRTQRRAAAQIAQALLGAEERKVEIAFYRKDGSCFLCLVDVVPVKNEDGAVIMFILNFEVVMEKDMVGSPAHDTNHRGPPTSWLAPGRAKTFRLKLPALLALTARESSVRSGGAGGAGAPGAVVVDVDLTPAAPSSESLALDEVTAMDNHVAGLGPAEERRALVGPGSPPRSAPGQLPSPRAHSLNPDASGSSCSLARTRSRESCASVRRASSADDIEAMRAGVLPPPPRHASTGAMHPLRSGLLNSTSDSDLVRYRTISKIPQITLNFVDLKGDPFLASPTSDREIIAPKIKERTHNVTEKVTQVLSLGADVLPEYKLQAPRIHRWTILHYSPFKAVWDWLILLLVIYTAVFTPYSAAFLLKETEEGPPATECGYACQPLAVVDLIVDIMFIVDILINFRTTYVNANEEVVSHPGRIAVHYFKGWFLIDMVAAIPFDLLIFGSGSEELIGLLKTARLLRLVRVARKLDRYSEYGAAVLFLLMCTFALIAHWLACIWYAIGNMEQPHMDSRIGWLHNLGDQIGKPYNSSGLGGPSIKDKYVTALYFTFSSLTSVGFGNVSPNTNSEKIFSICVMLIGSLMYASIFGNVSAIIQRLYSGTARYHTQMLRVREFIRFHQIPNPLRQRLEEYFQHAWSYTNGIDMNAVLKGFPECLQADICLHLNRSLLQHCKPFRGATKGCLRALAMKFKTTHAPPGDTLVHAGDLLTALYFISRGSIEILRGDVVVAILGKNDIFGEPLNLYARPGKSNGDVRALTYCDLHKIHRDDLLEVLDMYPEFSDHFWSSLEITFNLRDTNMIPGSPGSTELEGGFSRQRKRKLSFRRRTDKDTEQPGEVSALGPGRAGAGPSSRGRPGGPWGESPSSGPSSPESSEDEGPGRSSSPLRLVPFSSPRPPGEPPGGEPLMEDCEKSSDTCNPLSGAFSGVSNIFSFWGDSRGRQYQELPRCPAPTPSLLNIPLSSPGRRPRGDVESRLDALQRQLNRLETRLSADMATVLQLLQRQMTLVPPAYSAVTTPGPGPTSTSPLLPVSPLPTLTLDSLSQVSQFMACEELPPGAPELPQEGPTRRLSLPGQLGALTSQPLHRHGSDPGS

| Compound | hERG current change (%, negative = inhibition) at 10uM [%] |
| --- | --- |
| Cc1ccc(C(O)P(=O)(OC2CCCCC2)OC2CCCCC2)cc1 (centres unmarked) | -0.47 |
| C/C(=N\NC(=O)CSCc1ccc(Cl)cc1)c1ccc2c(c1)OCCO2 | -0.841 |
| CCn1c(=O)cc(SCC(=O)NCC2CCCO2)c2ccccc21 (centres unmarked) | -6.43 |
| O=C(COc1ccccc1Cl)Nc1ccc(S(=O)(=O)Nc2ccccn2)cc1 | 13 |
| O=C(O)c1n[nH]nc1-c1ccccc1 | 17.4 |
| CCOc1ccc(NC(=O)Nc2cccs2)cc1 | 14.5 |
| NS(=O)(=O)c1ccc(CCNC(=O)c2ccccc2Cc2ccccc2)cc1 | -31.6 |
| COc1cc(C)cc(CN2CCC(Cc3ccccc3)CC2)c1O | -52.2 |
| O=C(COC(=O)c1cccs1)c1ccc2ccccc2c1 | -6.69 |
| CC1=CC2=NC(=O)CC(C)(C(=O)N(CC(=O)NC(C)(C)C)Cc3cccs3)N2C=C1 (centres unmarked) | -17.1 |
| Cc1ccc(NC(=S)N(CCN(C)C)Cc2cc3cc(C)ccc3[nH]c2=O)cc1 | -43.5 |
| O=C(CNC(=O)Cc1ccc(Cl)cc1)NCc1ccco1 | 11.3 |
| Cc1cccc2cc(CN(CC3CCCO3)C(=O)c3ccco3)c3nnnn3c12 (centres unmarked) | 3.95 |
| O=C(N/N=C\c1ccccn1)c1cccc(C(=O)N/N=C\c2ccccn2)n1 | 5.53 |
| CC1CCN(C(=O)c2cc3nc(-c4ccccc4)cc(-c4ccccc4)n3n2)CC1 | -7.21 |
| COc1ccc(-c2nc(CN3CCC(C(=O)NC4CCCC4)CC3)c(C)o2)cc1OC | -36.4 |
| CCCCn1c(=O)[nH]c(=O)c2c1nc(-c1ccc(-c3ccccc3Br)o1)n2CC | 14.7 |
| Cc1ccc(CS(=O)(=O)Cc2ccc(C(=O)N3CCC4(CC3)OCCO4)o2)cc1 | -8.39 |
| COc1ccc(CCNC(=O)C(=O)NCC2OCCN2S(=O)(=O)c2ccc(Cl)cc2)cc1OC (centres unmarked) | -24.1 |
| CCn1cc(NC(=O)Nc2ccc(OC)c(OC)c2)c(C(N)=O)n1 | -4.98 |
| CNC(=O)c1c(C)nn(-c2ccc(F)c(Cl)c2)c1-c1cc(C)on1 | 4.71 |
| COc1ccc(OC)c(NC(=O)C2CCN(c3ncccn3)CC2)c1 | -0.133 |
| CCOC(=O)c1c(C)oc2ccc(OCC(N)=O)cc12 | -7.78 |

| Compound | hERG current change (%, negative = inhibition) at 10uM [%] |
| --- | --- |
| Cn1c(C=O)c(C#CC(C)(C)O)c2ccccc21 | 10.1 |
| C=CCn1c(SCC(=O)c2ccc(NS(=O)(=O)c3ccccc3)cc2)nnc1-c1cccs1 | -19.5 |
| c1ccc(-c2nnc(SCc3cn4ccsc4n3)o2)cc1 | -13.8 |
| CCOc1ccc(S(=O)(=O)NCc2ccncc2)cc1 | -17.8 |
| CC(c1ccc(F)cc1)n1c(-c2cccs2)n[nH]c1=S (centres unmarked) | 6.01 |
| COc1cccc(C2C(C(=O)Nc3nc4ccccc4s3)=C(C)NC3=C2C(=O)CC(C)(C)C3)c1OC (centres unmarked) | 15.8 |
| CC1(C)CC(=O)c2c(-c3cccnc3)n[nH]c2C1 | -9.55 |
| CCOc1ccc(-n2c(SCc3cc(=O)oc4cc(C)ccc34)nnc2-c2cccnc2)cc1 | -70.7 |
| CN(C)c1ccc(/C=N\NC(=S)SCN2C(=O)C3CCC(C)(C2=O)C3(C)C)cc1 (centres unmarked) | 10.7 |
| CCC(=O)NC(c1cccs1)c1cc([N+](=O)[O-])c2cccnc2c1O (centres unmarked) | 15 |
| COc1ccc(N=C(C)C2=C(O)CSC2=O)cc1 | 12.6 |
| COc1ccc(CCNC(=O)CSc2ccccc2)cc1OC | -0.789 |
| Cc1ccc(NS(=O)(=O)c2cc(OCC(N)=O)c(C)cc2Cl)cc1C | -22.8 |
| Cc1cc(Cl)ccc1NC(=S)NCCc1ccc(Cl)cc1 | 15.6 |
| CCCc1cc(=O)oc2c(C)c(OCC(=O)NC3CC(C)(C)NC(C)(C)C3)ccc12 | -18 |
| CCOC(=O)CSc1nc(C(C)(C)C)cc(C(F)(F)F)c1C#N | 11.7 |
| COc1cc(C(=O)Nc2ccc(F)cc2Cl)ccc1OCC(=O)N1CCOCC1 | 4.55 |
| CCNc1nc(NC(C)(C)C)nc(SCC(N)=O)n1 | 10.5 |
| Cc1c(C)n(CCC#N)c2ccc(Cl)cc12 | -12.4 |
| COCCCNC(=O)/C(=C\c1cccn1C)NC(=O)c1cccs1 | 7.68 |
| Cc1ccc(C)c(N(CC(=O)NN=C2CCN(C)CC2)S(=O)(=O)c2ccccc2)c1 | -3.06 |
| COc1ccc(Cl)cc1NC(=O)c1cccc(N2C(=O)C3CC=CCC3C2=O)c1 (centres unmarked) | -41.8 |
| Cc1nnc(SCC(=O)NCc2ccco2)n1-c1ccccc1 | 26.1 |

| Compound | hERG current change (%, negative = inhibition) at 10uM [%] |
| --- | --- |
| COc1ccc(C(=O)N/C(=C\c2ccccc2)C(=O)NC(CCSC)C(=O)O)cc1 (centres unmarked) | 8.06 |
| O=C(Nc1cc(Cl)cc(Cl)c1)N1CCCC1 | 3.91 |
| CCN(CC)S(=O)(=O)c1cccc(S(=O)(=O)N2CCCCC2)c1 | -26.4 |
| C=CCN([C@@H](CC(C)C)C(=O)OC)S(=O)(=O)N(CC=C)[C@@H](CC(C)C)C(=O)OC | 8.18 |
| O=C(O)CCCC(=O)N1N=C(c2ccco2)CC1c1ccco1 (centres unmarked) | 9.6 |
| CC(=O)c1cccc(NS(=O)(=O)c2ccc(N/C=C/C(=O)c3ccc(F)cc3)cc2)c1 | 8.3 |
| N#Cc1ccc(-c2ccco2)nc1SCc1ccccc1 | 5.14 |
| Cc1cccc(NC(=O)CSCC(=O)Nc2cccc(S(=O)(=O)N3CCCCCC3)c2)c1 | -9.69 |
| Cc1nc(-c2ccccc2)nc2[nH]c(C(C)C)cc(=O)c12 | -7.26 |
| CCCS(=O)(=O)N1CCCC(C(=O)Nc2ccc3c(c2)CCC3)C1 (centres unmarked) | 5.43 |
| Cc1ccc(-c2n[nH]c(=S)n2/N=C/c2c(C)[nH]n(-c3ccccc3)c2=O)cc1 | 31.8 |
| CCCc1nc(SCC(=O)c2ccccc2)c2c(=O)n(C)c(=O)n(C)c2n1 | -23.5 |
| O=C1C(=O)c2ccccc2C(O)=C1c1cccc([N+](=O)[O-])c1 | 13.8 |
| CCN(C(=O)CSc1nc2c(cnn2-c2ccccc2)c(=O)[nH]1)C1CCS(=O)(=O)C1 (centres unmarked) | -22.7 |
| CN(C(=O)c1ccccn1)c1nnc(-c2ccccn2)s1 | 11.6 |
| CCCCNc1c(-c2ccc(OC)c(SC3CCCCC3)c2)nc2cc(C)ccn12.O=C(O)C(F)(F)F | 12.6 |
| Cc1nc(N2CCNCC2)c2c3c(sc2n1)CCCC3 | -2.23 |
| CC1(c2nnc(-c3ccc(F)cc3)o2)CC(c2ccccc2)=NO1 (centres unmarked) | 10.1 |
| COc1ccc(/C=C/C(=O)O)cc1OC | 12.8 |
| Cl.N#Cc1ccc(C(c2nnnn2Cc2ccccc2)N2CCCC2)cc1 (centres unmarked) | -14.9 |
| Cc1cc(-c2ccccc2N)n[nH]1 | -2.9 |
| O=C(c1ccc(Cl)cc1)N1CCN(CCOc2ccccc2)CC1 | -60.1 |
| O=S(=O)(NCc1ccco1)c1cnc(Cl)c(Br)c1 | 2.87 |

| Compound | hERG current change (%, negative = inhibition) at 10uM [%] |
| --- | --- |
| COCc1[nH][nH]c(=O)c1C=Nc1ccc(C(F)(F)F)cc1 | -13.2 |
| O=C(C1=C(O)C(=O)N(CCc2ccccc2)C1c1cccs1)c1ccco1 (centres unmarked) | 10.2 |
| CC(C)Sc1nnc(OC(=O)N(C)C)n1-c1ccccc1 | -0.148 |
| CCCNC(=O)/C(C#N)=C1\N=C(NC(=O)c2cccs2)c2ccccc21 | 4.48 |
| COc1ccc(CC(=O)NCc2n[nH]c(=S)n2-c2cccc(C)c2)cc1 | 9.12 |
| COc1ccc(CCC(=O)Nc2cc(Cl)ccc2N2CCN(C)CC2)cc1 | -50.1 |
| COC(=O)CSc1ncnc2c1sc1nc(N3CCOCC3)c3c(c12)CCCC3 | 23.4 |
| Cc1csc(CN(C)C(=O)c2cn(Cc3cccc4ccccc34)nn2)n1 | -8.45 |
| CCn1c(SCC(=O)NCc2ccccc2)nc2c(c1=O)SC(C)C2 (centres unmarked) | -2.95 |
| Cc1cc(Cl)ccc1NC(=O)CCN1C(=O)C2CCCCC2C1=O (centres unmarked) | 0.13 |
| COc1cccc(CNC(=O)CCNC(=O)c2ccccc2OC)c1 | 2.88 |
| C=CCn1cnc2c(nnn2-c2ccc(OC)c(OC)c2)c1=O | 1.23 |
| CN[C@@H]1C[C@@H](c2ccc(Cl)c(Cl)c2)c2ccccc21.Cl | -22.4 |
| Cc1cc(/C=N/NC(=O)C(O)(c2ccccc2)c2ccccc2)c(C)n1-c1ccccc1 | -0.473 |
| CN(c1ccccc1)S(=O)(=O)c1ccc(Cl)c(C(=O)OCC(N)=O)c1 | -1.85 |
| COc1cccc(-c2csc(NNC(=O)c3cccs3)n2)c1 | -2.17 |
| CCS(=O)(=O)n1nc(-c2ccc(Cl)cc2)nc1N | -11.4 |
| CCCn1c(CN2CCN(C(=O)OCC)CC2)nc2c1c(=O)n(C)c(=O)n2C | 2.21 |
| Cc1cc(NC(=O)c2ccc(F)cc2)n(-c2ccccc2)n1 | -80.2 |
| O=S(=O)(c1cccc(Cn2nnc(-c3ccc(F)cc3)n2)c1)N1CCOCC1 | -29 |
